{"source": "paper PMC10726135", "note": "The list shows a part of the results. At the low end of the ranking the order means little. The protein was read in a cell extract, so binding may be indirect."}
{"target": "T1, HNF4alpha8 (COS-7 nuclear extract) (UniProt P41235-5)", "T1 sequence": "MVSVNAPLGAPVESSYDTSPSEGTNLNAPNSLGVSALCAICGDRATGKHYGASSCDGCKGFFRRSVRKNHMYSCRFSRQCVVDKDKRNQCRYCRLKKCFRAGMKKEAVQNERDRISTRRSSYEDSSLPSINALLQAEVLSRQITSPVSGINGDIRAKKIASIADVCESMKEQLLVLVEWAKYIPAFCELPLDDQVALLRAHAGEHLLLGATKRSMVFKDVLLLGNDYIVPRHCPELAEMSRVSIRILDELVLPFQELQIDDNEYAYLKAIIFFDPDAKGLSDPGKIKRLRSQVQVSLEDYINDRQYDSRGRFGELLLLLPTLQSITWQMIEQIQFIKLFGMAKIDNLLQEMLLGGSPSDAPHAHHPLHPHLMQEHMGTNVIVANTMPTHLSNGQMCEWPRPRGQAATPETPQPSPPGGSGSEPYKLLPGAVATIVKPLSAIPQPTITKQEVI", "assay": "protein-binding microarray", "conditions": "COS-7 nuclear extract on double-stranded Agilent 4x180k PBM; binding buffer, salt, pH and temperature not given; high values mean tight binding; double strand, one strand shown; sequences stand for … in …GCCTAGGGAGATTAGAGTATCGGTCGA"}
{"sequence": "GAGACAACTGCAACAGGAGGACCTCTGGAT", "binding signal (log2 normalized intensity)": -0.854}
{"sequence": "CTGCTTTGTGGCATCAGGGTCCACAAGGGT", "binding signal (log2 normalized intensity)": 3.18}
{"sequence": "TCAAGATGTCTCAAGATATCTATATGTTTA", "binding signal (log2 normalized intensity)": 0.953}
{"sequence": "CTCAAGAATTGTCTAACCGCAGCAAGACAC", "binding signal (log2 normalized intensity)": -1.4}
{"sequence": "CTTTCAAGGCAGATTTCTGTCTTTGATCTG", "binding signal (log2 normalized intensity)": 1.23}
{"sequence": "AGTTCAAACTCTGAAAGCACTAAGTTACCT", "binding signal (log2 normalized intensity)": -1.46}
{"sequence": "CACAAAAAGGCTGTCACACTTGCCCTTTGC", "binding signal (log2 normalized intensity)": 5.42}
{"sequence": "GGGCTAGTCCCTGAGTATTATCTTTTTAAT", "binding signal (log2 normalized intensity)": -0.131}
{"sequence": "GTCTTCCTCAAATTACAAAAGGAGTTGGGG", "binding signal (log2 normalized intensity)": 0.108}
{"sequence": "CCTTGGATTAAAGGAGAACTGAGTAGGAGA", "binding signal (log2 normalized intensity)": -0.768}
{"sequence": "GATAACACTGATAACATGAGGTAGAGGGAC", "binding signal (log2 normalized intensity)": -1.16}
{"sequence": "CATTAAGCTTAGCGTTATCAAACCAAATAT", "binding signal (log2 normalized intensity)": -0.632}
{"sequence": "TCAAGAGAAATGTTATCTCAGTAGACTAAC", "binding signal (log2 normalized intensity)": -1.22}
{"sequence": "TGCAAGTTACCTTGGGGTCAAAGTACATCC", "binding signal (log2 normalized intensity)": 9.54}
{"sequence": "TTTGATCAGCTGGTCCTTCAAGTGTGACCC", "binding signal (log2 normalized intensity)": 4.35}
{"sequence": "AATACAGCACTCAAATGATCAAAGAAGCCC", "binding signal (log2 normalized intensity)": -1.38}
{"sequence": "TTAGGTGGACAGGGGTGTGTTGACCGATAA", "binding signal (log2 normalized intensity)": 1.77}
{"sequence": "ATAGCTGAAATTTGTATCTTGGGTTAGGCC", "binding signal (log2 normalized intensity)": 0.581}
{"sequence": "GTCTCAAAAAAAAAAAAAAGGCAGTCCTTA", "binding signal (log2 normalized intensity)": -1.32}
{"sequence": "GGCTGTCTCAGTGGGTGGGAAAGGGTGCTC", "binding signal (log2 normalized intensity)": 0.651}
{"sequence": "ATCCCTCGTAGGCAGGGCCAGATAAAGCAG", "binding signal (log2 normalized intensity)": -1.4}
{"sequence": "ACAGCACTTAGGGTTCAAAGGTTGTTGAGC", "binding signal (log2 normalized intensity)": 6.67}
{"sequence": "GCATCTTCAACTGTGTGAGCTGATCACACC", "binding signal (log2 normalized intensity)": -0.289}
{"sequence": "TTAGTGGAGTATAGGAACATGAACTGAGCA", "binding signal (log2 normalized intensity)": -0.356}
{"sequence": "CTCTGGCCCTTAAAGGCTTTTGCAAGAAAA", "binding signal (log2 normalized intensity)": -1.26}
{"sequence": "CTGCTCAGGGTGGGGTCTCGCTGCTTCGGC", "binding signal (log2 normalized intensity)": -1.32}
{"sequence": "TAAGCACCCAGATAAGTTATCCTTGTTCTA", "binding signal (log2 normalized intensity)": 0.773}
{"sequence": "GCTGGGATAACCGAGGCTGACAGCAGAGAG", "binding signal (log2 normalized intensity)": -1.27}
{"sequence": "GTCCAGTTGAATGATGGCGAGTGTGCAATT", "binding signal (log2 normalized intensity)": 0.26}
{"sequence": "TTTCCCTGGGGTCAATAGTTGTGTAAATAG", "binding signal (log2 normalized intensity)": 2.34}
{"sequence": "AAGTTCATGGAAAGTTTCACTTTCTCTTAT", "binding signal (log2 normalized intensity)": 0.0777}
{"sequence": "TTCCAGCAAAGAGATTAGGACACAGCAGAG", "binding signal (log2 normalized intensity)": -1.3}
{"sequence": "TCGAAGGCCAAGGGATTTCAGTGCCCTCAT", "binding signal (log2 normalized intensity)": 1.7}
{"sequence": "ACACCAAGCAAGCTCTGCAATAGAGCCACA", "binding signal (log2 normalized intensity)": -1.39}
{"sequence": "TCGAACAGTTGGCCACCTTTGGCCGAAACT", "binding signal (log2 normalized intensity)": 2.98}
{"sequence": "GTCCTCCTGTGGCCACAGAGCGCCTAACTA", "binding signal (log2 normalized intensity)": -1.27}
{"sequence": "CCCTCTGAGTGTTTGACCTTTCACCCAGAA", "binding signal (log2 normalized intensity)": 7.2}
{"sequence": "GGCGGGTTCTGCCATCTCGCAGAAAGTGGC", "binding signal (log2 normalized intensity)": -0.221}
{"sequence": "CTAGCATTAGGACCTGTTTGTCTTGCTGGG", "binding signal (log2 normalized intensity)": 1.33}
{"sequence": "TGACTTTATCATTGGACTCTCTCATTCTGA", "binding signal (log2 normalized intensity)": 2.51}
{"sequence": "ATAGACTGTCCCTCAGTGTGGGACTTTGGT", "binding signal (log2 normalized intensity)": 3.52}
{"sequence": "GCAGAAGGTGTTTCAGATGGACCAAAGGTC", "binding signal (log2 normalized intensity)": 6.13}
{"sequence": "AGAACACAGTCATTTATTCACTTATTTGTT", "binding signal (log2 normalized intensity)": -0.755}
{"sequence": "GGAGTTGTCTGTCCAGTTCAGGAGTTATCA", "binding signal (log2 normalized intensity)": 0.137}
{"sequence": "CCTGGGTGCTCCCTCCCCCTGCATGAACCT", "binding signal (log2 normalized intensity)": 4.34}
{"sequence": "GTTAGGGCCATTTGGTCTGTAGTGTTGCTC", "binding signal (log2 normalized intensity)": 1.37}
{"sequence": "TTTGGGTAATAACATGTAATTGCATGACCA", "binding signal (log2 normalized intensity)": 1.79}
{"sequence": "AGCCTTTCCTCAGATGGAATGTGTGCCCGT", "binding signal (log2 normalized intensity)": 1.79}
{"sequence": "TTAGGATAGGGTCAGTCTTTGTTCTAGTAA", "binding signal (log2 normalized intensity)": 1.37}
{"sequence": "CGTCACCTTTATCGAACCTATTGTTTAATC", "binding signal (log2 normalized intensity)": 1.37}
{"sequence": "TGCATGTGTTCACACCACACTCTCCTCCTG", "binding signal (log2 normalized intensity)": -1.17}
{"sequence": "CAGACAGCAGTCTGAGTAGGAAAGACTTGC", "binding signal (log2 normalized intensity)": -0.262}
{"sequence": "CTTCAGCATCTTCAACTGTGTGAGCTGATC", "binding signal (log2 normalized intensity)": 1.06}
{"sequence": "TTAGGGAGGGGCCAGGACAAAGGTCCTGTG", "binding signal (log2 normalized intensity)": 2.51}
{"sequence": "TGCCTAAATCCAAAGGGCATCAGCCCCAAT", "binding signal (log2 normalized intensity)": 1.2}
{"sequence": "GCTCTGTTTTCTGACGCAACAGAAAACTCA", "binding signal (log2 normalized intensity)": -1.48}
{"sequence": "TAGAACAGGGCTTTAATTACCTGTTCTAAG", "binding signal (log2 normalized intensity)": -1.34}
{"sequence": "AGACTTTTAAGTGGGGTCAAAGGGTACAAA", "binding signal (log2 normalized intensity)": 5.92}
{"sequence": "AAAGGTCAGTCCCGCAGTGAGGGACAAGGC", "binding signal (log2 normalized intensity)": -0.103}
{"sequence": "CTAGCAAATACAAGGACACTGAAAGGCATT", "binding signal (log2 normalized intensity)": -1.29}
{"sequence": "TCTGGTAAACAGCTGACAATAAATTCCAGG", "binding signal (log2 normalized intensity)": -1.3}
{"sequence": "ATTTGACCCTTGGCCAGGTGCAGTGGCTCA", "binding signal (log2 normalized intensity)": 3.54}
{"sequence": "CTTATAAATCTTCAACTGGAGGATAAAGTT", "binding signal (log2 normalized intensity)": 1.09}
{"sequence": "AATGTCTGCTGTTGCACCTCTTATCAAGCG", "binding signal (log2 normalized intensity)": -1.3}
{"sequence": "TCCTATTCGGTGCTGACCTTTGTTCACATT", "binding signal (log2 normalized intensity)": 6.64}
{"sequence": "GCTCACTTGGGGGTGGGGTGCTGCCTTTCC", "binding signal (log2 normalized intensity)": 0.199}
{"sequence": "CATCATCTCAGGGAGTGCAAACTTCTTTGA", "binding signal (log2 normalized intensity)": 0.928}
{"sequence": "ATAAAGAACGCTCACAGAAAGAAGAGACAG", "binding signal (log2 normalized intensity)": -1.31}
{"sequence": "GTCTCTCTCTCATGCTATGCTCTCTCTCCA", "binding signal (log2 normalized intensity)": -0.848}
{"sequence": "CAGCATGGTATGTGGCTTGCCGCATTCCCA", "binding signal (log2 normalized intensity)": -1.17}
{"sequence": "CCTTTCCCTTCTTCTCCTCCCAACAGGTAT", "binding signal (log2 normalized intensity)": 2.53}
{"sequence": "TGCTCCTGCTTGCTGGCTTTCCCACCCATG", "binding signal (log2 normalized intensity)": 0.887}
{"sequence": "AGAACTGGTCCGCCTTCATTCCTAGCCCCA", "binding signal (log2 normalized intensity)": 2.59}
